From ChEMBL document CHEMBL4888484, “Replenishing the malaria drug discovery pipeline: Screening and hit evaluation of the MMV Hit Generation Library 1 (HGL1) against asexual blood stage Plasmodium falciparum ,using a nano luciferase reporter read-out” (2022)
The whole screen tested about 150,000 compounds, of which about 540 (0.36%) showed an effect of 50% or more. The list shows a part of the results.

test system: Plasmodium falciparum; assay: Primary screen in NF54 nanoGlo assay, in single point, at 2uM, 72h; a lower Z score goes with more inhibition; type: functional, Erythrocyte; conditions: timepoint 72 hour

Compound	% Inhibition [%]	Z score
C[C@H](NC(=O)N1CC(C(C)(C)O)C1)c1ccc(Cl)c2ccccc12	-6	0.96
CCC(CC)C(=O)Nc1ccccc1NC(=O)C(CC)CC	-1	0.18
CCn1ccc(CNC(=O)N[C@@](C)(COC)c2ccccc2)n1	-3	0.43
Cc1nn(-c2ccccc2)c(Oc2ccc(F)cc2F)c1CN(CC1CC1)C[C@H](O)COC(C)C	3	-0.41
Cc1nccn1CC1(CNC(=O)Nc2ccc(C#N)nc2)CC1	-5	0.74
Cn1cc(OCC(=O)N2CCC[C@H]2COc2ccccc2)cn1	-7	0.98
CC(=O)N1CC(C)(C)c2cc(S(=O)(=O)N[C@@H](C)Cc3ccco3)ccc21	-13	1.58
Cc1ccc2nc(-c3ccc(Cl)cc3OS(=O)(=O)c3ccccc3OC(F)(F)F)oc2c1	-7	1.18
Cc1nc(CN2CC(=O)Nc3ccccc32)sc1C	0	0
Cc1cc(C(=O)Nc2nnc(-c3ccc(S(C)(=O)=O)cc3)o2)no1	0	0.04
Cc1ccc(-n2nc(C(=O)NCCc3ccccn3)c(=O)n(Cc3ccccc3)c2=O)cc1	-25	2.23
O=C(Nc1cccc2c1CCCC2)N1CCS(=O)(=O)CC1	-4	0.65
CN(CC1(CO)CCCC1)c1ncc(F)cn1	-4	0.84
O=C(O)c1cccc(C(=O)N2CCC[C@H]2c2cccs2)n1	-8	1.19
O=C(NCC[C@H]1CCCN1)c1cc(-c2ccco2)nc2c(Cl)cccc12	-4	0.71
O=C(Nc1cccc(S(=O)(=O)N2CCCCC2)c1)c1n[nH]c2ccccc12	-11	1.95
CN1C(=O)Cc2cc(Br)cnc21	-1	0.14
O=C(Cc1noc(-c2nn[nH]c2-c2ccccc2)n1)NC1CCCCC1	-17	2.17
COC(=O)N(C)CC(=O)Nc1cc(OC)cc(OC)c1	-4	0.61
CCCn1cnnc1CN(C)CCc1cccc(C)n1	-13	1.68
CCCOc1ccc(CN[C@@H](C)c2ccnn2C)cn1	-3	0.61
Cn1ncc2c(N3CCc4n[nH]cc4C3)nc(CCc3ccccc3)nc21	-1	0.14
Cc1csc(NC(=O)c2cccnc2C2CC2)n1	-4	0.41
CCN(CC(=O)N1CCN(c2ccc(-c3cccc(OC)c3)nn2)CC1)S(=O)(=O)c1ccc(Cl)cc1	-8	1.48
